# Assay results: the antibiotic and cytotoxicity screens of Wong et al. (2023)
# Some of the results follow.
# Columns and labels:
# HSkMC = human skeletal muscle cells; assay: cytotoxicity call (relative viability < 0.9); settings: 10 µM
# HepG2 = assay: cytotoxicity call (relative viability < 0.9); settings: 10 µM
# S. aureus RN4220 = assay: growth inhibition call (relative growth <= 0.2); settings: 50 µM
SMILES,cytotoxicity call (HSkMC),cytotoxicity call (HepG2),growth inhibition call (S. aureus RN4220)
C[C@@H]1CCCCO[C@H](CN(C)C(=O)Nc2ccc(C(F)(F)F)cc2)[C@H](C)CN([C@@H](C)CO)C(=O)c2cc(NC(=O)NC3CCCCC3)ccc2O1,inactive,inactive,inactive
COC(=O)[C@@H]1C(=O)NC[C@H]1c1ccccc1,inactive,inactive,inactive
CCS(=O)(=O)NCC[C@H]1CC[C@H](NC(=O)Cc2ccccn2)[C@H](CO)O1,inactive,inactive,inactive
Cn1cc(C(=O)O)cn1,inactive,inactive,inactive
COc1cccc(S(=O)(=O)N(C)C[C@@H]2Oc3ncc(C#Cc4ccc(F)cc4)cc3C(=O)N([C@H](C)CO)C[C@@H]2C)c1,inactive,inactive,inactive
Cc1ccc(S(=O)(=O)Nc2ccc3c(c2)C(=O)N([C@@H](C)CO)C[C@@H](C)[C@@H](CN(C)CC2CCCCC2)OCCCC[C@@H](C)O3)cc1,inactive,active,inactive
C[C@H]1CN([C@@H](C)CO)C(=O)c2cc(NS(=O)(=O)c3cn(C)cn3)ccc2O[C@@H]1CN(C)Cc1ccncc1,inactive,inactive,inactive
CN1CCN(C(=O)C[C@@H]2CC[C@@H]3[C@H](COC[C@H](O)CN3C(=O)Nc3ccc4c(c3)OCO4)O2)CC1,inactive,inactive,inactive
COc1ccc(NC(=O)Nc2cccc3c2O[C@@H](CN(C)C(=O)Nc2cccc4ccccc24)[C@@H](C)CN([C@@H](C)CO)C3=O)cc1,inactive,inactive,inactive
Cc1n[nH]c(=O)n1-c1cccc(C(=O)O)c1,inactive,inactive,inactive
CCN(CC)CCNC(C(=O)OCCC(C)C)c1ccccc1.Cl.Cl (configuration not stated),inactive,inactive,inactive
C[C@H](CO)N1C[C@H](C)[C@@H](CN(C)Cc2ccncc2)Oc2ccc(NS(=O)(=O)c3ccccc3)cc2C1=O,inactive,inactive,inactive
CCS(=O)(=O)NCC[C@@H]1CC[C@H](NS(=O)(=O)c2ccccc2C)[C@H](CO)O1,inactive,inactive,inactive
C[C@@H]1CCCCO[C@H](CN(C)Cc2ccccc2)[C@@H](C)CN([C@H](C)CO)C(=O)c2cc(NC(=O)Nc3ccc(C(F)(F)F)cc3)ccc2O1,active,active,inactive
Nc1c(C(=O)c2ccccc2)no[n+]1[O-],inactive,inactive,inactive
C[C@@H]1CN([C@@H](C)CO)C(=O)c2cccc(NS(=O)(=O)c3cccs3)c2O[C@@H]1CN(C)CC1CC1,inactive,inactive,inactive
O=C(C[C@@H]1C[C@H]2c3cc(NC(=O)NC4CCCC4)ccc3O[C@H]2[C@@H](CO)O1)NCc1ccc2c(c1)OCO2,inactive,inactive,inactive
C[C@@H]1CN([C@H](C)CO)C(=O)Cc2cc(NC(=O)CCC(F)(F)F)ccc2O[C@H]1CN(C)Cc1ccc(Oc2ccccc2)cc1,inactive,active,inactive
C[C@H]1CN([C@@H](C)CO)C(=O)CCCn2nncc2CO[C@@H]1CN(C)C(=O)Nc1ccc2c(c1)OCCO2,inactive,inactive,inactive
C[C@H]1CN([C@@H](C)CO)C(=O)c2cc(NC(=O)CCCCCC(=O)Nc3ccccc3N)ccc2O[C@@H]1CN(C)Cc1ccccc1,inactive,active,inactive

SMILES,cytotoxicity call (HSkMC),cytotoxicity call (HepG2),growth inhibition call (S. aureus RN4220)
C[C@@H]1CCCCO[C@@H](CN(C)S(=O)(=O)c2ccc(Cl)cc2)[C@H](C)CN([C@H](C)CO)C(=O)c2cc(NS(=O)(=O)c3cccs3)ccc2O1,inactive,active,inactive
C[C@H](CO)N1C[C@H](C)[C@H](CN(C)C)Oc2ccc(NC(=O)Cc3cn(C)c4ccccc34)cc2CC1=O,inactive,inactive,inactive
C[C@@H]1CCCCO[C@@H](CN(C)C(=O)NC2CCCCC2)[C@@H](C)CN([C@@H](C)CO)C(=O)c2cc(NC(=O)NC3CCCCC3)ccc2O1,inactive,inactive,inactive
C[C@@H]1CN([C@@H](C)CO)C(=O)c2cccc(NS(=O)(=O)c3ccc(Cl)cc3)c2O[C@@H]1CN(C)Cc1ccc(Cl)c(Cl)c1,inactive,inactive,inactive
C[C@H]1CN([C@@H](C)CO)C(=O)Cc2cc(NC(=O)CCC(F)(F)F)ccc2O[C@H]1CN(C)S(=O)(=O)c1cccs1,inactive,inactive,inactive
Cc1cccc(S(=O)(=O)N2C[C@@H](O)COC[C@H]3O[C@H](CC(=O)N4CCN(C)CC4)CC[C@@H]32)c1,inactive,inactive,inactive
O=C(Cc1ccc(-c2ccccc2)cc1)N[C@@H]1CCOC1.O=C(Cc1ccc(-c2ccccc2)cc1)N[C@H]1CCOC1,inactive,inactive,inactive
CCCNC(=O)Nc1ccc2c(c1)C(=O)N(C)C[C@H](OC)[C@H](C)CN(C(=O)C1CCOCC1)[C@H](C)CO2,inactive,inactive,inactive
COc1ccc(S(=O)(=O)N(C)C[C@H]2Oc3c(NC(=O)Nc4c(C)noc4C)cccc3C(=O)N([C@@H](C)CO)C[C@@H]2C)cc1,inactive,inactive,inactive
COc1ccc(NC(=O)N(C)C[C@H]2Oc3c(NC(=O)CCCCCC(=O)Nc4ccccc4N)cccc3C(=O)N([C@H](C)CO)C[C@@H]2C)cc1,inactive,inactive,inactive
Cc1noc(C)c1NC(=O)Nc1ccc2c(c1)C(=O)N([C@H](C)CO)C[C@H](C)[C@H](CN(C)S(=O)(=O)c1cccs1)OCCCC[C@H](C)O2,inactive,inactive,inactive
C[C@H](CO)N1C[C@H](C)[C@H](CN(C)C(=O)Nc2cccc3ccccc23)Oc2c(NS(=O)(=O)c3ccccc3)cccc2C1=O,inactive,inactive,inactive
O=C(C[C@@H]1C=C[C@@H](NC(=O)Cc2ccccn2)[C@@H](CO)O1)NCCc1ccncc1,inactive,inactive,inactive
Cc1ccc(S(=O)(=O)Nc2ccc3c(c2)CC(=O)N([C@H](C)CO)C[C@@H](C)[C@H](CN(C)C(=O)Nc2cccc4ccccc24)O3)cc1,inactive,inactive,inactive
C[C@H](CO)N1C[C@H](C)[C@H](CN(C)Cc2ccc(Cl)c(Cl)c2)Oc2ccc(NC(=O)CCC(F)(F)F)cc2CC1=O,inactive,inactive,inactive
C[C@H](CO)N1C[C@H](C)[C@H](CN(C)C(=O)Nc2ccc(C(F)(F)F)cc2)Oc2ccc(NS(=O)(=O)c3ccc(Cl)cc3)cc2CC1=O,inactive,inactive,inactive
CCNC(=O)C[C@@H]1C=C[C@@H](NC(=O)C2CCOCC2)[C@@H](CO)O1,inactive,inactive,inactive
CCCCC/C=C\C/C=C\CCCCCCCC(=O)O,inactive,inactive,inactive
C[C@H](CO)N1C[C@H](C)[C@@H](CN(C)S(=O)(=O)c2ccccc2)Oc2ccc(NC(=O)CCCN(C)C)cc2C1=O,inactive,inactive,inactive
